# Hit rate of the full screen: of about 50,000 compounds, about 800 (1.6%) showed an effect of 50% or more. The list shows a part of the results.
# Biological target: Bcl-2-like protein 10 (Homo sapiens) (UniProt Q9HD36)
# Assay: Phenotype converters, Bcl-B/TR3 peptide binding displacement, primary biochemical FP (AID 1240);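 also: 0% = Bcl-B with tracer peptide and DMSO and 100% = tracer peptide lacking Bcl-B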
# Settings: GST-Bcl-B / FITC-TR3 peptide fluorescence polarization; stronger effect = higher value; compound at 3.75 mg/L
# Chain of UniProt Q9HD36 (Q9HD36 whole entry, looked up): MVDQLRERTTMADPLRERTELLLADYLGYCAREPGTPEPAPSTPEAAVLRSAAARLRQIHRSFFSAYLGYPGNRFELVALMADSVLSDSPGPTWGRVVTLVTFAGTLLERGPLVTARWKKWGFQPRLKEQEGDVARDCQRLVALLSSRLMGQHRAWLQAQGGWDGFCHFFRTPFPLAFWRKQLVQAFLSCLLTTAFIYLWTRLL
row,Structure (SMILES),displacement [%]
1,Clc1ccc(/C=N/Nc2nc(N3CCOCC3)nc(N3CCOCC3)n2)cc1,23.2
2,COC(=O)C1=C(C)N=C2SCCC(=O)N2C1c1ccc(C(C)(C)C)cc1 (stereo not drawn),12.2
3,COc1ccc(/C(C)=N/N=C2/NC(=O)C(CC(=O)Nc3cccc([N+](=O)[O-])c3)S2)cc1 (stereo not drawn),12.5
4,Cc1cc(-c2ccccc2)c2ccc(O)cc2n1,12
5,O=C(c1ccc([N+](=O)[O-])cc1)N1CCN(Cc2cccc(Cl)c2)CC1,-21.7
6,COc1ccc2c(c1OC)C(=O)N(c1nc(-c3ccccc3)cs1)C2=O,-14.2
7,COC(=O)c1ccc(COc2ccc3c(C)cc(=O)oc3c2)cc1,7.9
8,COc1ccccc1OCC(=O)Nc1ccc2c(c1)OCCO2,2.2
9,O=C(Nc1cccc2ccccc12)N1CCCCCC1,1.9
10,CCCNC(=O)C1CC(=O)N(c2ccc(Br)cc2)C1 (stereo not drawn),13.5
11,CCOc1ccc(N(CC(=O)NCCSc2ccc(Cl)cc2)S(C)(=O)=O)cc1,-12.1
12,Cc1cc(Cl)ccc1OCC(=O)Nc1ccccc1O,25.3
13,COc1ccccc1C(=O)Nc1nc(-c2ccc(S(=O)(=O)N3CCOCC3)cc2)cs1,10.4
14,COc1cccc(OC)c1C(=O)NC1CCCCC1,6.5
15,CC1=NOC(=O)/C1=C/c1ccc(C)cc1,5.8
16,Cc1ccccc1C(=O)NNC(=O)c1cccc([N+](=O)[O-])c1,-7.7
17,COc1cc(C=O)c(OC)cc1Br,13.6
18,COc1ccccc1C(=O)O/N=C1/CCCc2c1ccc(OC)c2[N+](=O)[O-],19.7
19,O=C(NC(NC(=S)Nc1ccc(I)cc1)C(Cl)(Cl)Cl)c1cccc([N+](=O)[O-])c1 (stereo not drawn),-1.3
20,O=[N+]([O-])c1ccc(OC(CNS(=O)(=O)c2ccc(Cl)cc2)c2ccccc2)cc1 (stereo not drawn),-4.6
21,CCOc1nc(-c2ccccc2)cc(-c2ccc(Br)cc2)n1,-2.2
22,CN1C(=O)/C(=C\c2nc3ccccc3c(=O)n2C)c2cc(Br)ccc21,-7
23,CC(C)(C)c1ccc(/C=C/C(=O)NCc2cccnc2)cc1,-0.3
24,Nc1nonc1NC(=O)N/N=C\c1ccccc1F,-7.4
25,CCN(CC)S(=O)(=O)c1cc(C(=O)Nc2ccc(C(=O)O)cc2)ccc1Cl,-9.6

row,Structure (SMILES),displacement [%]
1,CCNC(=O)C(=O)Nc1ccc(Cl)cc1,7.3
2,O=C(CC1(O)C(=O)Nc2ccc(Br)cc21)c1ccc2ccccc2c1 (stereo not drawn),11.5
3,CC1=CC(C)(C)Nc2ccc(OC(=O)Cc3cccc4ccccc34)cc21,1.4
4,Cc1ccc2nc(-c3cccc(NC(=O)c4cccs4)c3)oc2c1,5.2
5,COc1ccccc1C1C(C#N)=C(N)Oc2c1sc1ccccc21 (stereo not drawn),13.2
6,CCOC(=O)C1CCN(C(=O)c2ccccc2[N+](=O)[O-])CC1,-11.6
7,O=C(/C=C/c1ccc(-c2cccc([N+](=O)[O-])c2)o1)c1ccc(F)cc1,3.4
8,Cc1cc(OCC(=O)NC2C3CC4CC(C3)CC2C4)ccc1Br (stereo not drawn),-6.7
9,O=C(Nc1ccc2oc(-c3cccc(Cl)c3Cl)nc2c1)c1ccco1,-18.1
10,O=C(NCc1ccncc1)C(=O)NCc1ccccn1,-18.8
11,COc1ccc(C)cc1NS(=O)(=O)c1ccc(Cl)cc1,10.5
12,O=C1c2ccccc2C(O)(c2ccc(Br)cc2)N1c1ccccc1 (stereo not drawn),5.5
13,O=C(N/N=C/c1sc2ccccc2c1Cl)c1ccncc1,6.9
14,c1ccc(-c2nc(N3CCCCC3)nc3ccccc23)cc1,-5.4
15,O=C(CC1Nc2ccccc2NC1=O)NCc1ccccc1 (stereo not drawn),-4.7
16,O=C(O)c1ccc(-c2ccc(Br)cc2)o1,-2.2
17,CCCCNCCCCCOc1ccc(C)c(C)c1,0.8
18,O=C(CN(Cc1ccccc1)S(=O)(=O)c1ccccc1)NCc1ccncc1,14.5
19,CCCC(=O)Nc1ccc(NC(=O)c2cc(Br)ccc2Cl)cc1,13.6
20,CCOC(=O)/C(C#N)=C/c1sccc1C,-10.1
21,CCCN(CCC)c1ccc(/C=N\NC(=O)C2COc3cc4ccccc4cc3O2)cc1 (stereo not drawn),-5.7
22,COc1ccc(C(=O)Nc2ccc3nn(-c4ccc(C)cc4)nc3c2)cc1Br,26
23,Cc1ccc(OCC(=O)Nc2ccc(C)c(Cl)c2)c(Br)c1,-4.5
24,O=C(c1ccc2nc3c4ccccc4c4ccccc4c3nc2c1)N1CCOCC1,18.3
25,COC(=O)c1c(C)oc2ccc(O)cc12,18.3

row,Structure (SMILES),displacement [%]
1,CC(C(=O)O)N1C(=O)/C(=C/c2cccs2)SC1=S (stereo not drawn),9.1
2,O=C(CC(=O)NCc1ccccc1)NCc1ccccc1,2.7
3,CCOc1ccc(N2C(=O)NC(=O)/C(=C\c3cc(C)n(-c4cccnc4)c3C)C2=O)cc1,-2.4
4,COc1ccc(OC)c(N(CC(=O)N2CCc3ccccc3C2)S(=O)(=O)c2ccccc2)c1,5.2
5,COC(=O)c1ccc(C(=O)OC)c(NC(=O)/C=C/c2ccccc2)c1,8.7
6,CC1(C)CC(=O)C2=C(C1)OC1=C(C(=O)CC(C)(C)C1)C2c1ccc(OCC(=O)O)cc1,6.4
7,CC(C)=C1C2C=CC1C1C(=O)N(c3ccc(C)c(C)c3)C(=O)C21 (stereo not drawn),12.7
8,COc1ccc(OC)c(NC(=O)c2ccccc2F)c1,1
9,CC(=O)Nc1ccccc1-c1nn[nH]n1,1
10,O=C(CN(c1cccc(Br)c1)S(=O)(=O)c1ccccc1)Nc1ccc(Cl)cc1,3
11,O=C(Nc1nc2ccccc2n1CCN1CCCC1)c1ccc(Cl)cc1,-10.4
12,COc1ccc(C2CC(=O)C3=C(C2)Nc2ccccc2NC3c2ccccc2C)cc1OC (stereo not drawn),4.1
13,C/C(=N\NC(N)=O)C1CC1(C)C(C)(C)C (stereo not drawn),13.6
14,Cc1cc(C)c(S(=O)(=O)N(C)Cc2ccccc2)c(C)c1,-11.3
15,Cc1cccc(N2C(=O)c3ccc(-c4nc5ccccc5c(=O)o4)cc3C2=O)c1,2.4
16,CC(C)CNC(=O)CN(c1ccccc1)S(=O)(=O)c1ccccc1[N+](=O)[O-],13
17,O=C(Nc1cccc(F)c1)c1ccc([N+](=O)[O-])cc1,3.2
18,COCc1cc(C)nc(SCC(=O)NC(C)(C)C)c1C#N,2.6
19,Cc1cccc(N2CCN(C(=S)c3ccccc3)CC2)c1,11.9
20,O=C(c1cccc(Br)c1)N1CCN(c2ccc(F)cc2)CC1,10.9
21,C/C(=N/NC(=O)c1cccnc1)c1cc(O)ccc1O,-12
22,COC(=O)c1ccc(/C=N/N=C2\C(=O)Nc3ccccc32)cc1,-5.5
23,CCc1ccc(-c2nc(-c3cccnc3)no2)cc1,-6.7

# From PubChem BioAssay AID1240 (Sanford-Burnham Center for Chemical Genomics, 2008)
